The shares of active, inactive and inconclusive entries below differ from those in the screen. No potency is given beside an inconclusive call; the fits are too rough. The source made the active and inactive calls. Calls come from the whole dose curve; as a rule, active = well fitted inhibition curve with a large enough effect in the repeat runs; inconclusive = weak or mixed curves; inactive = no such curve, though single readings can be large or run the other way.
Target: Cytochrome P450 3A4 (Homo sapiens) (UniProt P08684)
Experiment: Cytochrome P450 Family 3 Subfamily A Member 4 (CYP3A4) small molecule antagonists: luciferase reporter qHTS assay (AID 1671201); note: nearly all actives have a fitted effect of over 50% in size
Settings: P450-Glo CYP3A4 enzyme, luciferin luminescence, 1 h; series mostly up to 115 µM; activity change, negative = inhibition: at the top concentration
Outline: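 Enzyme and proluciferin substrate are mixed with test chemicals for 10 min, then NADPH regeneration system drives turnover for 1 h at room temperature. A detection reagent halts the reaction; luminescence after 20 min gives relative activity.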
% is set by controls: 0 for no effect and ±100 for the full control effect; potency is the fitted concentration of half-maximal effect; tags give direction and shape of the fitted curve.

Sequence of UniProt P08684 (P08684 whole entry, looked up): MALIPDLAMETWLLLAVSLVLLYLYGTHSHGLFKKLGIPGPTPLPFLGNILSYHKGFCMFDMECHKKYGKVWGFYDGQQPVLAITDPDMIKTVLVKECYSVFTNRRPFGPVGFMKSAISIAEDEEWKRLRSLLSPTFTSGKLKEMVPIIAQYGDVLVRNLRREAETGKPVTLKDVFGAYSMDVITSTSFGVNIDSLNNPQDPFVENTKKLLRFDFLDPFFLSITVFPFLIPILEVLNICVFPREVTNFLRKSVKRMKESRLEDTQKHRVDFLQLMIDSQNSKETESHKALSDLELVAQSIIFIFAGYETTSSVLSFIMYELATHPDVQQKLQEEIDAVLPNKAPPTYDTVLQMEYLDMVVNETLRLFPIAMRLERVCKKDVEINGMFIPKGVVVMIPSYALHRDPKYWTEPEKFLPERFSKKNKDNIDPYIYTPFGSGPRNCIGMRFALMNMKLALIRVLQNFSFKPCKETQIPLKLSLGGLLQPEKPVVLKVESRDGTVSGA

SMILES	Potency	activity change, negative = inhibition
CCN(CC)c1ccc(N=Nc2ccccc2)cc1	inconclusive [inhibitor, partial curve]	–
CC(C)SCc1ccco1	–	inactive: -2.35% [at 52.9 µM]
CCCCC(CC)CO (stereo unspecified)	inconclusive [inhibitor, partial curve]	–
CCN(Cc1cccc(S(=O)(=O)O)c1)c1ccc(C(=C2C=CC(=[N+](CC)Cc3cccc(S(=O)(=O)[O-])c3)C=C2)c2ccccc2)cc1	inconclusive [inhibitor, partial curve]	–
CO[Si](OC)(c1ccccc1)c1ccccc1	inconclusive [inhibitor, full curve]	–
CC(C)(c1ccc(Oc2ccc3c(c2)C(=O)OC3=O)cc1)c1ccc(Oc2ccc3c(c2)C(=O)OC3=O)cc1	–	inactive: 59.3%

From PubChem BioAssay (Tox21)
